From paper PMC4336329 (PLoS ONE, 2015) come the findings set out here.

Molecules are shown by their SMILES. The whole screen tested about 310,000 compounds, of which about 14,000 (4.5%) showed an effect of 50% or more. Effects have a minus sign here. This is one part of the list.
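Also: peak tail current of the secondary pulse compared with the same well before compound.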

Sequence of human ether-à-go-go-related gene (hERG) potassium channel (Q12809 whole entry, looked up): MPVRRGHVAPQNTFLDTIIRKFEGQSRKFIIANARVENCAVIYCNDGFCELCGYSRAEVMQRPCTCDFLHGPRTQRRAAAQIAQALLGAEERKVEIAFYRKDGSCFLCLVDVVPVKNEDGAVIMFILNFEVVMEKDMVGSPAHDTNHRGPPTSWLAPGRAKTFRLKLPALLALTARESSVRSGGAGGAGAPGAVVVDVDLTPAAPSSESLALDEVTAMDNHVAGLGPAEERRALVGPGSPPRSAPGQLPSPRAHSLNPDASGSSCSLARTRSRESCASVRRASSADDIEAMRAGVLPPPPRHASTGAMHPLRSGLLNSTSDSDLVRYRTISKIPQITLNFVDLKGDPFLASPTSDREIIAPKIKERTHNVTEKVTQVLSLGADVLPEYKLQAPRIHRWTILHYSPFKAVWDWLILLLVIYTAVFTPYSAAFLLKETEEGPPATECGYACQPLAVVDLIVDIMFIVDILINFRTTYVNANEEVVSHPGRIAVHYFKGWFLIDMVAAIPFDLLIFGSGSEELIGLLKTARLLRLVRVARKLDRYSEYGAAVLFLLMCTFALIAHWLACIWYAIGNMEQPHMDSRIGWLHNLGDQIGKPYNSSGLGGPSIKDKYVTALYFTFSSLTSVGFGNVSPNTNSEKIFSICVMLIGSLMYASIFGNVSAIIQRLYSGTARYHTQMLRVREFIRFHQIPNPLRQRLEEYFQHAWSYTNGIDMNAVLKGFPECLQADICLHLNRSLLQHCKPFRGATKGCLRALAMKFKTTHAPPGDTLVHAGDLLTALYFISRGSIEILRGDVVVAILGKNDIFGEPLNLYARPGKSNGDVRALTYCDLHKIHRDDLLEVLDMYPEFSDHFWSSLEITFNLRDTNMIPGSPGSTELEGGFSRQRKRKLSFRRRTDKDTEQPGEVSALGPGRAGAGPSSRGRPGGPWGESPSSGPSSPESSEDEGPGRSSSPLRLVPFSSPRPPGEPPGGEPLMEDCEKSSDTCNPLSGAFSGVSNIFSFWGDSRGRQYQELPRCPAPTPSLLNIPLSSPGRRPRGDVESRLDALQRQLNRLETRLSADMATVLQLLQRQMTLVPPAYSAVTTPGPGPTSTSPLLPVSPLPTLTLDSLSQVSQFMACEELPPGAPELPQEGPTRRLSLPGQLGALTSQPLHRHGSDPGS

The experiment addresses human ether-à-go-go-related gene (hERG) potassium channel (human, UniProt Q12809). Briefly: primary screen, population patch clamp on CHO cells stably expressing hERG.
As to `O=C(CCC(=O)OC(C(=O)c1ccccc1)c1ccccc1)Nc1ccccc1` (stereo not shown), the “hERG current change (%, negative = inhibition) at 10uM” value is listed as 3.27%.

As for `Cc1ccc(/C=C2/NC(=O)N(Cc3ccccc3)C2=O)s1`, the “hERG current change (%, negative = inhibition) at 10uM” value is -16.6%. For `Cc1ccc2nc3c(c(Nc4ccccc4)c2c1)CCC3.Cl`, the “hERG current change (%, negative = inhibition) at 10uM” value is listed as -71.7%. Take `Cc1cccc(NC(=O)c2ccc3[nH]c(=O)c(=O)[nH]c3c2)n1`: the “hERG current change (%, negative = inhibition) at 10uM” value is recorded as -4.79%. As for `N#Cc1c(NC(=O)CSC2=NCCS2)sc2c1CCCC2`, the “hERG current change (%, negative = inhibition) at 10uM” value is -6.3%. For the molecule `Cc1ccc(N(CC(=O)NCc2ccc3c(c2)OCO3)S(=O)(=O)c2c(C)noc2C)cc1`, the “hERG current change (%, negative = inhibition) at 10uM” value was 2.53%. For the molecule `O=Nc1c(O)n(Cc2ccc(Cl)cc2Cl)c2ccccc12`, the “hERG current change (%, negative = inhibition) at 10uM” value turned out to be 4.26%.

Turning to `Cc1cc(Cl)nc(Cl)c1C(=O)NCCc1ccccc1`, the “hERG current change (%, negative = inhibition) at 10uM” value is on record as 1.69%. Consider `COc1ccc(C(=O)NCc2nnc(SCC(=O)Nc3nnc(C)s3)o2)cc1`, for which the “hERG current change (%, negative = inhibition) at 10uM” value came out at 14.5%. In the case of `Cc1occc1C(=O)N1CCCC(Nc2ccc(F)cc2)C1` (stereo not shown), the “hERG current change (%, negative = inhibition) at 10uM” value is on record as -3.68%. For the molecule `CNC(=S)NCCN1CCOCC1`, the “hERG current change (%, negative = inhibition) at 10uM” value is reported as -9.17%. Take `CCCc1nc2ccccc2c(C(=O)OCC(=O)NCc2ccco2)c1CC`: the “hERG current change (%, negative = inhibition) at 10uM” value was -27.6%. `O=C1NC(=O)C(=Cc2cccc(OCCOc3ccccc3)c2)C(=O)N1`: the “hERG current change (%, negative = inhibition) at 10uM” value is reported as -1.14%. On to `COC(=O)c1ccc(NC(=O)CN(Cc2ccc(Cl)cc2)S(C)(=O)=O)cc1`, for which the “hERG current change (%, negative = inhibition) at 10uM” value is on record as -1.02%.

Take `O=C(CCC(=O)N1CCCC1)N1CCCC1`: the “hERG current change (%, negative = inhibition) at 10uM” value is 36.1%.

For `Cc1cc(C)c(C)c(SCC(=O)Nc2oc(C)c3c(C)n[nH]c(=O)c23)c1C`, the “hERG current change (%, negative = inhibition) at 10uM” value was -32.8%. `Cc1ccc(C(=O)N2CCN(c3nc4ccccc4n3C)CC2)cc1`: the “hERG current change (%, negative = inhibition) at 10uM” value was -70.3%. For `COc1ccc(CC(=O)Nc2cc(Cl)ccc2C(=O)O)cc1` the value was 12.1%; for `COc1ccc(N(C(=O)C2CSC(=O)C2)C(C(=O)NC(C)(C)C)c2ccncc2)cc1` (stereo not shown), 23.8%; for `COc1ccccc1N1CCN(c2nc(C)cc(=O)[nH]2)CC1`, 11.6%.

For the molecule `CN(CCCNC(=O)C1CCCN(S(=O)(=O)c2cnc[nH]2)C1)c1ccccc1` (stereo not shown), the “hERG current change (%, negative = inhibition) at 10uM” value is reported as 16.3%.

With `COc1ccc(-n2c(O)c(/C(C)=N/Nc3ccccc3)c(=O)[nH]c2=O)cc1`, the “hERG current change (%, negative = inhibition) at 10uM” value came out at 8.31%. For `O=[N+]([O-])c1cc([N+](=O)[O-])c2nonc2c1Nc1ccccc1O`, the “hERG current change (%, negative = inhibition) at 10uM” value is 10.3%. For `Cc1csc(NC(=O)/C=C/c2ccco2)n1` the value was 3.38%.

As to `Cc1ccccc1S(=O)(=O)Cc1ccc(C(=O)NC(C)c2ccc3c(c2)OCCO3)o1` (stereo not shown), the “hERG current change (%, negative = inhibition) at 10uM” value was -7.77%.
